The campaign covered roughly 340,000 compounds. Fewer than 10 were called active. The inconclusive results got no clear call from the source; some entries with a clear call stand among them for comparison. Calls come from the whole dose curve; as a rule, active = well fitted inhibition curve with a large enough effect in the main read-out, with a control signal flat (not every such curve was filed as active); inconclusive = small, poorly fitted or top-dose-only effect, or effect the other way, or a change in a side signal; inactive = no such curve, though single readings can be large or run the other way. A potency beside an inconclusive call is a rough fit, not a confirmed value. A note “side channel” means that the fit belongs to a control or component signal, not to the main read-out.
The molecules below were run against Tumor susceptibility gene 101 protein (Homo sapiens) (UniProt Q99816) (assay: qHTS Assay for Iinhibitors of HIV-1 Budding by Blocking the Interaction of PTAP/TSG101). Conditions: Fluorescence polarization, FITC-PTAP peptide / Tsg101 binding; activity change, negative = inhibition: at 115 µM (top of the series).
UniProt Q99816, sequence (Q99816 whole entry, looked up, the tested form may be a part): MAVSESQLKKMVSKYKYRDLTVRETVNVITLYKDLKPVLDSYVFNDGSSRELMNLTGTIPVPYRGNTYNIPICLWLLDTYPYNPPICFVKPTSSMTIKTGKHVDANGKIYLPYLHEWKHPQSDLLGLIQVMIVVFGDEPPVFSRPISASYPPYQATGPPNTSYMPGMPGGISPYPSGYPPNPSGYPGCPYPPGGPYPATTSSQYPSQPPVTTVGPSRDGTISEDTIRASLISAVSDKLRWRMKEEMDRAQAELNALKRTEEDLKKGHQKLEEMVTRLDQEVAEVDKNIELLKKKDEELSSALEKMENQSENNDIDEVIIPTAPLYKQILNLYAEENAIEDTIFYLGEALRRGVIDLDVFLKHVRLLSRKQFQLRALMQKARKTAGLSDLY
Summary of the method: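 Steps: Tsg101 binding domain dispensed (10 uM final), compounds pinned in DMSO, FITC-labeled PTAP-motif peptide added (50 nM final); after 20 min binding at room temperature, polarization measured.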
Potency is the fitted concentration of half-maximal effect; tags give direction and shape of the fitted curve or compound fluorescence and quenching.
Throughout, for activity change, negative = inhibition: % of control where 0% means no effect.

Structure (SMILES) | Potency | activity change, negative = inhibition
COc1cccc2c1C(=O)c1c(O)c3c(c(O)c1C2=O)CC(O)(C(=O)CO)CC3OC1CC(N(C)C)C(O)C(C)O1 (stereo unspecified) | inconclusive: 56.2 µM [fluorescent, side channel, partial curve, poor fit] | 
COC(=O)c1ccc(CN2CCCC(CCC(=O)NCc3ccc(C)o3)C2)cc1 (stereo unspecified) |  | inactive: -3.48%
O=C(NCc1ccc(F)cc1)c1cccc2c1C(=O)c1ccc(N3CCC(Cc4ccccc4)CC3)cc1S2(=O)=O | inconclusive: 50.1 µM [fluorescent, partial curve, poor fit] | 
Cc1cc(-c2ccco2)c(C#N)c2nc3ccccc3n12 | inconclusive: 56.2 µM [fluorescent, side channel, partial curve, poor fit] | 
COc1ccc(C(=O)/C=C/c2ccc(N(C)C)cc2)c(OC)c1 | inconclusive: 50.1 µM [fluorescent, side channel, partial curve, poor fit] | 
O=C(/C=C/c1ccc(Cl)cc1Cl)c1nc2ccccc2[nH]1 | inconclusive: 79.4 µM [falling, partial curve, poor fit] | 
Nc1nc(NCc2ccccc2)nc(NCc2ccccc2)c1[N+](=O)[O-] |  | inactive: -2.09%
CCN(CC)c1ccc(C=N/C(C#N)=C(\N)C#N)cc1 | inconclusive: 79.4 µM [fluorescent, side channel, partial curve] | 
CNc1c(NS(=O)(=O)c2ccc(F)c(Cl)c2)c(=O)oc2ccccc12 |  | inactive: -5.23%
N#C/C(=C\c1cccs1)C(=O)c1ccccc1Cl |  | inactive: 0.2%
COC(=O)c1ccc(C23CC4(C2)[C@H](CN(Cc2ccc(C(F)(F)F)cc2)[C@@H]4c2ccccc2)C3c2ccccc2)cc1 (stereo partly specified) |  | inactive: 1.08%
Cc1ccc(NC(=O)/C(=C/c2cccs2)NC(=O)c2ccco2)cc1 | inconclusive: 56.2 µM [fluorescent, side channel, partial curve, poor fit] | 
O=C(Nc1ccc(S(=O)(=O)NC2=NCCCCC2)cc1)c1cccs1 |  | inactive: 1.09%
CCOC(=O)c1cc2n(c1N)-c1ccccc1C2=O | inconclusive: 44.7 µM [fluorescent, side channel, partial curve] | 
N#C/C(=C/c1ccc(N2CCCCC2)o1)C(=O)Nc1ccc2ccccc2c1 | inconclusive: 10 µM [fluorescent, side channel, full curve] | 
Cc1ccccc1N1C(=O)c2cccc3c(N(C)CCO)ccc(c23)C1=O | inconclusive: 50.1 µM [fluorescent, side channel, partial curve, poor fit] | 
CCOC(=O)CCC(NC(=O)c1ccc(CNc2nc3cc(C(F)(F)F)ccc3nc2C(=O)OCC)cc1)C(=O)OCC (stereo unspecified) | inconclusive: 50.1 µM [fluorescent, side channel, partial curve, poor fit] | 
COC(=O)C1=COC(C)C2CN3CCc4c([nH]c5ccccc45)C3CC12 (stereo unspecified) | inconclusive: 70.8 µM [fluorescent, side channel, partial curve] | 

Structure (SMILES) | Potency | activity change, negative = inhibition
COc1ccccc1N1CCN(C(c2cc3cc(C)ccc3[nH]c2=O)c2nnnn2C2CCCC2)CC1 (stereo unspecified) | inconclusive: 20 µM [quencher, side channel, partial curve, poor fit] | 
CCN1CCN(Cc2c(O)ccc3c2O/C(=C\c2ccccc2)C3=O)CC1 | inconclusive: 56.2 µM [fluorescent, side channel, partial curve, poor fit] | 
CCOC(=O)C1CCCN(c2nc3ccccc3nc2C(C#N)C(=O)NCc2ccccc2)C1 (stereo unspecified) | inconclusive: 79.4 µM [falling, partial curve, poor fit] | 
O=C(O)CCCN1C(=O)/C(=C/c2cn(-c3ccccc3)nc2-c2cccs2)SC1=S | inconclusive: 79.4 µM [fluorescent, side channel, partial curve] | 
Cc1nn(-c2ccccc2)c(N2CCCC2)c1/C=C1\N=C(c2ccccc2)OC1=O | inconclusive: 79.4 µM [fluorescent, side channel, partial curve, poor fit] | 
CCOc1ccc(Nc2cc(Nc3ccccc3OCC)nc(C=C(C#N)C#N)n2)cc1 | inconclusive: 50.1 µM [fluorescent, side channel, partial curve, poor fit] | 
COc1ccc(NC(=O)COC(=O)CNC(=O)c2cccs2)cc1Cl |  | inactive: -3.53%
COc1cc(N2CCCC2)c(OC)cc1/C=C(/C#N)c1ccc(Br)cc1 | inconclusive: 31.6 µM [fluorescent, side channel, partial curve, poor fit] | 
COC(=O)/C=C1\SC(=NC(=O)c2ccc(OC)cc2)NC1=O |  | inactive: -0.0973%
CCOc1cc(C2C(C#N)=C(N)OC(C)=C2C(C)=O)cc(Br)c1O (stereo unspecified) | inconclusive: 56.2 µM [fluorescent, side channel, partial curve, poor fit] | 
Oc1oc(-c2ccccc2)nc1C=Nc1cccc2ccccc12 | inconclusive: 89.1 µM [fluorescent, side channel, single point] | 
N=c1oc2c3c4c(cc2cc1C(=O)Nc1ccccc1)CCCN4CCC3 | inconclusive: 3.16 µM [fluorescent, side channel, full curve] | 
CCSC1=NSC2=NC(=O)/C(=C\c3coc4ccccc4c3=O)C(=N)N12 | inconclusive: 35.5 µM [fluorescent, side channel, partial curve] | 
CC1CCCN(c2ccc(C(=O)NCc3cccs3)cn2)C1 (stereo unspecified) |  | inactive: -5.21%
Cc1oc(-c2ccc(Cl)cc2)nc1CN1CCC(C(=O)NCCCN2CCCC(C)C2)CC1 (stereo unspecified) |  | inactive: -1.83%
OC(CN1CCN(c2cccc(Cl)c2)CC1)C(c1ccccc1)c1ccccc1 (stereo unspecified) | inconclusive: 31.6 µM [quencher, side channel, partial curve, poor fit] | 
CCCCN(C)C1=CC2=CC(=C(C#N)C#N)CCC2CC1 (stereo unspecified) | inconclusive: 22.4 µM [fluorescent, side channel, full curve] | 
COc1ccc(-c2c(-c3ccc(O)cc3O)n[nH]c2C(F)(F)F)cc1 |  | inactive: -3.27%

From PubChem BioAssay AID493005 (National Center for Advancing Translational Sciences (NCATS), 2010)
